This is one part of the list. The list includes weakly bound sequences.

The target in the assay is T1, MBP-FoxP3dN (UniProt Q99JB6).
T1 sequence: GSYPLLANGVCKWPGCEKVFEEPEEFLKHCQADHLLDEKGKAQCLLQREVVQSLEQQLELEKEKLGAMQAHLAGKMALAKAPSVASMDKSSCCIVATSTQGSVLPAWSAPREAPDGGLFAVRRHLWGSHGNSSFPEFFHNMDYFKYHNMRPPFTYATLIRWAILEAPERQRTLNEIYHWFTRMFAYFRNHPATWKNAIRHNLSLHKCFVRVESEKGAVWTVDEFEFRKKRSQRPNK
The assay is described as follows: PD-seq (MBP pull-down with sequencing). The following applies: 20 mM Tris-HCl pH 7.5, 100 mM NaCl, 1.5 mM MgCl2, 0.4 uM protein, 0.1 uM dsDNA library, 30 min, room temperature, amylose pull-down; high values mean tight binding; double strand, one strand shown.
Regarding “GATGATTGTTCTCCCAGCTGATGAATTGGGCCGGTCGAGTAAACAAATTTTCCTAATCTTTCTGTTCAAGCGCCATCTAC”, the binding signal (RPM ratio (pull-down/input)) stood at 0.372.

Turning to “GATGATTGTTCTCCCAGCTGATGAATTGGCTACCTCGAGTAAACAAATTTTCCTAATCTTTCTGTTCAAGCGCCATCTAC”, the binding signal (RPM ratio (pull-down/input)) stood at 0.421. For “GATGATTGTTCTCCCAGCTGATGAATTGTTCAAGTCGAGTAAACAAATTTTCCTAATCTTTCTGTTCAAGCGCCATCTAC” the value was 0.292; for “GATGATTGTTCTCCCAGCTGATGAATTGCCGGATTCGAGTAAACAAATTTTCCTAATCTTTCTGTTCAAGCGCCATCTAC”, 0.392; for “GATGATTGTTCTCCCAGCTGATGAATTTAAGGCTTCGAGTAAACAAATTTTCCTAATCTTTCTGTTCAAGCGCCATCTAC”, 0.384.

With “GATGATTGTTCTCCCAGCTGATGAATTCTGACGGTCGAGTAAACAAATTTTCCTAATCTTTCTGTTCAAGCGCCATCTAC”, the binding signal (RPM ratio (pull-down/input)) worked out at 0.284.

As to “GATGATTGTTCTCCCAGCTGATGAATTTGATTCTTCGAGTAAACAAATTTTCCTAATCTTTCTGTTCAAGCGCCATCTAC”, the binding signal (RPM ratio (pull-down/input)) was 1.95.

With “GATGATTGTTCTCCCAGCTGATGAATTTACCGCGTCGAGTAAACAAATTTTCCTAATCTTTCTGTTCAAGCGCCATCTAC”, the binding signal (RPM ratio (pull-down/input)) is 0.551.

In the case of “GATGATTGTTCTCCCAGCTGATGAATTGGAGAGCTCGAGTAAACAAATTTTCCTAATCTTTCTGTTCAAGCGCCATCTAC”, the binding signal (RPM ratio (pull-down/input)) was determined as 0.216. Consider “GATGATTGTTCTCCCAGCTGATGAATTTAACAGTTCGAGTAAACAAATTTTCCTAATCTTTCTGTTCAAGCGCCATCTAC”, for which the binding signal (RPM ratio (pull-down/input)) amounted to 0.464.

In the case of “GATGATTGTTCTCCCAGCTGATGAATTCATACCTTCGAGTAAACAAATTTTCCTAATCTTTCTGTTCAAGCGCCATCTAC”, the binding signal (RPM ratio (pull-down/input)) was 0.401. Regarding “GATGATTGTTCTCCCAGCTGATGAATTGGCTGACTCGAGTAAACAAATTTTCCTAATCTTTCTGTTCAAGCGCCATCTAC”, the binding signal (RPM ratio (pull-down/input)) was found to be 0.845. Turning to “GATGATTGTTCTCCCAGCTGATGAATTAACCTGATCGAGTAAACAAATTTTCCTAATCTTTCTGTTCAAGCGCCATCTAC”, the binding signal (RPM ratio (pull-down/input)) was found to be 0.199. For “GATGATTGTTCTCCCAGCTGATGAATTAGGAGAATCGAGTAAACAAATTTTCCTAATCTTTCTGTTCAAGCGCCATCTAC” the value was 0.195. As for “GATGATTGTTCTCCCAGCTGATGAATTCAACGACTCGAGTAAACAAATTTTCCTAATCTTTCTGTTCAAGCGCCATCTAC”, the binding signal (RPM ratio (pull-down/input)) was 0.407.

As to “GATGATTGTTCTCCCAGCTGATGAATTTTCTGAATCGAGTAAACAAATTTTCCTAATCTTTCTGTTCAAGCGCCATCTAC”, the binding signal (RPM ratio (pull-down/input)) came out at 0.193. Consider “GATGATTGTTCTCCCAGCTGATGAATTCATCGGCTCGAGTAAACAAATTTTCCTAATCTTTCTGTTCAAGCGCCATCTAC”, for which the binding signal (RPM ratio (pull-down/input)) is 0.265. The figure for “GATGATTGTTCTCCCAGCTGATGAATTTGTCTCCTCGAGTAAACAAATTTTCCTAATCTTTCTGTTCAAGCGCCATCTAC” is 2.93.

In the case of “GATGATTGTTCTCCCAGCTGATGAATTCGTCAAGTCGAGTAAACAAATTTTCCTAATCTTTCTGTTCAAGCGCCATCTAC”, the binding signal (RPM ratio (pull-down/input)) worked out at 0.32. For “GATGATTGTTCTCCCAGCTGATGAATTGGTGCGTTCGAGTAAACAAATTTTCCTAATCTTTCTGTTCAAGCGCCATCTAC” the value was 1.84. The figure for “GATGATTGTTCTCCCAGCTGATGAATTGGGGCTATCGAGTAAACAAATTTTCCTAATCTTTCTGTTCAAGCGCCATCTAC” is 0.601; for “GATGATTGTTCTCCCAGCTGATGAATTAATATACTCGAGTAAACAAATTTTCCTAATCTTTCTGTTCAAGCGCCATCTAC” it is 1.38; for “GATGATTGTTCTCCCAGCTGATGAATTCCAGTGCTCGAGTAAACAAATTTTCCTAATCTTTCTGTTCAAGCGCCATCTAC” it is 0.41.

With “GATGATTGTTCTCCCAGCTGATGAATTAAAGCTATCGAGTAAACAAATTTTCCTAATCTTTCTGTTCAAGCGCCATCTAC”, the binding signal (RPM ratio (pull-down/input)) came to 0.683. For the sequence “GATGATTGTTCTCCCAGCTGATGAATTGCAGCACTCGAGTAAACAAATTTTCCTAATCTTTCTGTTCAAGCGCCATCTAC”, the binding signal (RPM ratio (pull-down/input)) was 0.947. On to “GATGATTGTTCTCCCAGCTGATGAATTTTCCTGTTCGAGTAAACAAATTTTCCTAATCTTTCTGTTCAAGCGCCATCTAC”, for which the binding signal (RPM ratio (pull-down/input)) turned out to be 0.246. Turning to “GATGATTGTTCTCCCAGCTGATGAATTTTACCATTCGAGTAAACAAATTTTCCTAATCTTTCTGTTCAAGCGCCATCTAC”, the binding signal (RPM ratio (pull-down/input)) came to 0.391. For “GATGATTGTTCTCCCAGCTGATGAATTATTTCGCTCGAGTAAACAAATTTTCCTAATCTTTCTGTTCAAGCGCCATCTAC” the value was 0.356; for “GATGATTGTTCTCCCAGCTGATGAATTTTTAGGCTCGAGTAAACAAATTTTCCTAATCTTTCTGTTCAAGCGCCATCTAC”, 0.257; for “GATGATTGTTCTCCCAGCTGATGAATTCGCCAAATCGAGTAAACAAATTTTCCTAATCTTTCTGTTCAAGCGCCATCTAC”, 0.213. For “GATGATTGTTCTCCCAGCTGATGAATTGAAGAGGTCGAGTAAACAAATTTTCCTAATCTTTCTGTTCAAGCGCCATCTAC” the value was 0.188. As for “GATGATTGTTCTCCCAGCTGATGAATTACCGAGATCGAGTAAACAAATTTTCCTAATCTTTCTGTTCAAGCGCCATCTAC”, the binding signal (RPM ratio (pull-down/input)) came to 0.258. “GATGATTGTTCTCCCAGCTGATGAATTTTCTTCATCGAGTAAACAAATTTTCCTAATCTTTCTGTTCAAGCGCCATCTAC”: the binding signal (RPM ratio (pull-down/input)) was 0.275. The figure for “GATGATTGTTCTCCCAGCTGATGAATTCGCCATTTCGAGTAAACAAATTTTCCTAATCTTTCTGTTCAAGCGCCATCTAC” is 1.75; for “GATGATTGTTCTCCCAGCTGATGAATTACGGATTTCGAGTAAACAAATTTTCCTAATCTTTCTGTTCAAGCGCCATCTAC” it is 0.374; for “GATGATTGTTCTCCCAGCTGATGAATTAAGCGCCTCGAGTAAACAAATTTTCCTAATCTTTCTGTTCAAGCGCCATCTAC” it is 1.4. The figure for “GATGATTGTTCTCCCAGCTGATGAATTAGCGAGTTCGAGTAAACAAATTTTCCTAATCTTTCTGTTCAAGCGCCATCTAC” is 0.547. The figure for “GATGATTGTTCTCCCAGCTGATGAATTCCACCGTTCGAGTAAACAAATTTTCCTAATCTTTCTGTTCAAGCGCCATCTAC” is 0.359. As to “GATGATTGTTCTCCCAGCTGATGAATTAGTTTACTCGAGTAAACAAATTTTCCTAATCTTTCTGTTCAAGCGCCATCTAC”, the binding signal (RPM ratio (pull-down/input)) worked out at 5.83.

Consider “GATGATTGTTCTCCCAGCTGATGAATTAAATCGCTCGAGTAAACAAATTTTCCTAATCTTTCTGTTCAAGCGCCATCTAC”, for which the binding signal (RPM ratio (pull-down/input)) was found to be 0.294.
